Target: T1, yeast surface-displayed human IL-2 (residues 1-133) (human, UniProt P60568)
T1 construct: also called hIL-2; not shown: yeast display anchor encoded by the pCT302 vector
Experiment: yeast surface titration on hIL-2-displaying yeast, flow cytometry, normalized MFI
Protocol: Yeast surface binding studies. […] Cells were then washed and stained with a 1:200 dilution of Alexa647-conjugated streptavidin (Thermo) in PBSA for 15 minutes at 4° C. After a final wash, cells were analyzed for antibody binding using a CytoFLEX flow cytometer (Beckman Coulter). Background-subtracted and normalized binding curves were fitted to a first-order binding model and equilibrium dissociation constant (KD) values were determined using GraphPad Prism.

T1 sequence (P60568 21-153): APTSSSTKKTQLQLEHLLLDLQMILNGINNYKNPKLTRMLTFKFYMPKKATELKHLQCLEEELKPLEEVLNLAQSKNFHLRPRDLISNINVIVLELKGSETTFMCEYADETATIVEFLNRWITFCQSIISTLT

B1: F5111 immunocytokine (IC) LN15 (other)
heavy: QLQLQESGPGLVKPSQTLSLTCTVSGGSISSGGYYWSWIRQHPGKGLEWIGYIYYSGSTYYNPSLKSRVTISVDTSKNQFSLKLSSVTAADTAVYYCARTPTVTGDWFDPWGRGTLVTVSS[not shown - human IgG1 constant region]
light: [not shown - about 150 residues]GGGGSGGGGSGGGGSNFMLTQPHSVSESPGKTVTISCTRSSGSIASNYVQWYQQRPGSSPTTVIYEDNQRPSGVPDRFSGSIDSSSNSASLTISGLKTEDEADYYCQSYDSSNVVFGGGTKLTVLGQPKAAPSVTLFPPSSEELQANKATLVCLISDFYPGAVTVAWKADSSPVKAGVETTTPSKQSNNKYAASSYLSLTPEQWKSHRSYSCQVTHEGSTVEKTVAPTECS
notes: also called F5111 IC LN15; single-chain IL-2/F5111 immunocytokine
B1 was tested, and the “EC50 (read off the curve)” value was ~4 nM.
